Measurements: paper PMC4336329 (PLoS ONE, 2015)
About 14,000 (4.5%) of roughly 310,000 compounds showed an effect of 50% or more. The effect is printed as a negative number. The list shows a part of the results.

Target: human ether-à-go-go-related gene (hERG) potassium channel (human, UniProt Q12809)
Experiment: primary screen, population patch clamp on CHO cells stably expressing hERG
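Further: peak tail current of the secondary pulse compared with the same well before compound.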

Chain of human ether-à-go-go-related gene (hERG) potassium channel (Q12809 whole entry, looked up): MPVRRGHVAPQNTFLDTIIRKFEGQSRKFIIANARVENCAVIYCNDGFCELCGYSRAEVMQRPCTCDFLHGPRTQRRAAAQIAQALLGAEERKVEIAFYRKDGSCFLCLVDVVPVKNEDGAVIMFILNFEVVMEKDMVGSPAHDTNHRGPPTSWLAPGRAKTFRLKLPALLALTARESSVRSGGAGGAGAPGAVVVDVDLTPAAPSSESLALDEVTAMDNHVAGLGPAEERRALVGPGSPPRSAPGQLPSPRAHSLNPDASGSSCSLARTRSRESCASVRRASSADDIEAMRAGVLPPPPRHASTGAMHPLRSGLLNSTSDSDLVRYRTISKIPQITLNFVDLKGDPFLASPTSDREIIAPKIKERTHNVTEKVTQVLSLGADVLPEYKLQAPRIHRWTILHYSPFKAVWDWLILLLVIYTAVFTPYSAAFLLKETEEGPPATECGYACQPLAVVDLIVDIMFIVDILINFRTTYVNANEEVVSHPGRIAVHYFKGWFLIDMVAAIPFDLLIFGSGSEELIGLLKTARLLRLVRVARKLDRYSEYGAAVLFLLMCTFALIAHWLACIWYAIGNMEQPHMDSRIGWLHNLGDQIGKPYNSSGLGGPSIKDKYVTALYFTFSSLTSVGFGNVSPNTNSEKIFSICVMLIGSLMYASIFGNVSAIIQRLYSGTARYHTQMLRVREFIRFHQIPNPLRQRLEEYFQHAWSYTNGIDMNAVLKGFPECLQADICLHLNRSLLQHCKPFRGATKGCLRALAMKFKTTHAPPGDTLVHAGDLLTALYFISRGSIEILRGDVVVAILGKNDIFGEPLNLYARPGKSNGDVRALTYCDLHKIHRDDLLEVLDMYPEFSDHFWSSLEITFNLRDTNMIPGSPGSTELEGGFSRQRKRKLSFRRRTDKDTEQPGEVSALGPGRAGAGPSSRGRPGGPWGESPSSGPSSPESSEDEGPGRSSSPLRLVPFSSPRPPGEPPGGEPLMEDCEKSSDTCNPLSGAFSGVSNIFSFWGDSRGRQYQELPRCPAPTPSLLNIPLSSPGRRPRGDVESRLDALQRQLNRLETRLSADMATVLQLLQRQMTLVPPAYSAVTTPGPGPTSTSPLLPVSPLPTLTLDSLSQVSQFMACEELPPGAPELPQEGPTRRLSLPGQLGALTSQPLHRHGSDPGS

Question: Which “hERG current change (%, negative = inhibition) at 10uM” value does the source give for `CCn1c(O)c(N=NC(=O)CNC(=O)c2ccccc2F)c2ccccc21` here?
Answer: Its value is -6.97%.

Question: `O=C(CN1C(=O)NC2(CCCCCC2)C1=O)N1CCN(S(=O)(=O)c2ccccc2)CC1` was tested. Which “hERG current change (%, negative = inhibition) at 10uM” value did it give?
Answer: Its value is 5%.

Question: Which “hERG current change (%, negative = inhibition) at 10uM” value does the source give for `COc1ccc(CNC(=O)Cn2c(=O)n(CCC(=O)N3CCCCC3)c(=O)c3sccc32)cc1` here?
Answer: Its value is -25.9%.

Question: For `CN(C)Cc1ccccc1Cc1ccccc1.O=C(O)/C=C\C(=O)O`, which “hERG current change (%, negative = inhibition) at 10uM” value is on record?
Answer: The value was -10.1%.

Question: `CN(CC(=O)Nc1cccc(F)c1)C(=O)c1ccc(S(=O)(=O)N2CCCC2)cc1` was tested. Which “hERG current change (%, negative = inhibition) at 10uM” value did it give?
Answer: The value was -4.69%.

Question: Which “hERG current change (%, negative = inhibition) at 10uM” value does the source give for `COC(=O)C1C(=O)CC(C)(O)C(C(=O)OC)C1c1ccccc1F` (stereo not drawn) here?
Answer: The value was 12.7%.

Question: `O=C(CSc1nnc(-c2ccccc2)n1-c1ccccc1)NCc1ccco1` was tested. Which “hERG current change (%, negative = inhibition) at 10uM” value did it give?
Answer: The value was 1.47%.

Question: How did the “hERG current change (%, negative = inhibition) at 10uM” value turn out when `Cc1ccc(C)c(NC(=S)NNC(=O)c2ccc(Br)o2)c1` was run?
Answer: The value was 18.7%.

Question: How did the “hERG current change (%, negative = inhibition) at 10uM” value turn out when `O=C(Nc1ccccc1-c1nc2ccccc2s1)c1ccc(Br)o1` was run?
Answer: Its value is 12.8%.

Question: `CCOc1ccccc1-n1c(COc2ccc(C)cc2)nnc1SCC(N)=O` was tested. Which “hERG current change (%, negative = inhibition) at 10uM” value did it give?
Answer: Its value is -5.47%.

Question: With `Cn1c(=O)[nH]c(=O)c2c1nc(N1CCCC1)n2CCCSc1nc2ccccc2o1` as the compound, how does the “hERG current change (%, negative = inhibition) at 10uM” value read?
Answer: The value was -25.4%.

Question: For `CCN1CCCC1CNC(=O)c1cc2c(-c3ccc(Cl)cc3)nn(C)c2s1` (stereo not drawn), which “hERG current change (%, negative = inhibition) at 10uM” value is on record?
Answer: The value was -62.4%.

Question: How did the “hERG current change (%, negative = inhibition) at 10uM” value turn out when `Cc1cc(C)c(NC2=NS(=O)(=O)c3ccccc32)c(C)c1` was run?
Answer: Its value is -10.9%.

Question: `O=C(/C=C/Nc1ccc(F)cc1F)c1cccs1` was tested. Which “hERG current change (%, negative = inhibition) at 10uM” value did it give?
Answer: The value was 14.2%.

Question: For `Cc1nnc(SCC(=O)N2CCCCC2)s1`, which “hERG current change (%, negative = inhibition) at 10uM” value is on record?
Answer: The value was -1.86%.

Question: How did the “hERG current change (%, negative = inhibition) at 10uM” value turn out when `COc1cc(C=O)ccc1Oc1cnccn1` was run?
Answer: The value was 19.4%.

Question: For `COC(=O)C1=C(C)NC(=O)NC1c1cc(Cl)ccc1OC` (stereo not drawn), which “hERG current change (%, negative = inhibition) at 10uM” value is on record?
Answer: Its value is 7.69%.

Question: For `Cc1ccnc(NC(=O)c2ccc(S(=O)(=O)c3ccccc3)cc2)c1`, which “hERG current change (%, negative = inhibition) at 10uM” value is on record?
Answer: Its value is 10.4%.

Question: For `O=c1c2ccccc2nc(-c2cccs2)n1-c1cnccn1`, which “hERG current change (%, negative = inhibition) at 10uM” value is on record?
Answer: Its value is 4.77%.

Question: How did the “hERG current change (%, negative = inhibition) at 10uM” value turn out when `CCOC(=O)[C@@H]1[C@H]2COc3ccccc3[C@@H]2N2C(=O)N(c3ccc(Cl)cc3)C(=O)[C@]12C` was run?
Answer: Its value is 9.54%.

Question: For `O=C(CCN1C(=O)C2C3CC(C(Br)C3Br)C2C1=O)OCC(=O)c1cccc([N+](=O)[O-])c1` (stereo not drawn), which “hERG current change (%, negative = inhibition) at 10uM” value is on record?
Answer: Its value is 19%.

Question: Which “hERG current change (%, negative = inhibition) at 10uM” value does the source give for `NC(CCCCCP(=O)(c1ccccc1)c1ccccc1)C(=O)O` (stereo not drawn) here?
Answer: Its value is 9.52%.

Question: `CN(C)c1oc(-c2ccccc2Cl)nc1P(=O)(c1ccccc1)c1ccccc1` was tested. Which “hERG current change (%, negative = inhibition) at 10uM” value did it give?
Answer: Its value is -19.6%.

Question: With `N#C/C(=C\c1ccco1)C(=O)Nn1cnnc1` as the compound, how does the “hERG current change (%, negative = inhibition) at 10uM” value read?
Answer: Its value is 9.8%.

Question: `CN(CCO)S(=O)(=O)c1ccc2c(c1)C(=O)c1cc(S(=O)(=O)N(C)CCO)ccc1-2` was tested. Which “hERG current change (%, negative = inhibition) at 10uM” value did it give?
Answer: The value was 7.83%.

Question: With `CCOC(=O)c1cc2c(nc1C)-c1cc(Cl)cc(Cl)c1OC2O` (stereo not drawn) as the compound, how does the “hERG current change (%, negative = inhibition) at 10uM” value read?
Answer: The value was 12.8%.

Question: For `CC(=O)c1ccc(N2CCN(C(=O)/C=C/c3cccs3)CC2)cc1`, which “hERG current change (%, negative = inhibition) at 10uM” value is on record?
Answer: Its value is -25%.

Question: `Oc1ccc(Br)cc1-c1nc2cnccn2c1NC1CCCC1` was tested. Which “hERG current change (%, negative = inhibition) at 10uM” value did it give?
Answer: Its value is -2.55%.

Question: Which “hERG current change (%, negative = inhibition) at 10uM” value does the source give for `CC(=O)N1CCN(S(=O)(=O)c2cccc(C(=O)Nc3ccc(C)cn3)c2)CC1` here?
Answer: Its value is -14.9%.

Question: How did the “hERG current change (%, negative = inhibition) at 10uM” value turn out when `CSc1nc(NCCCN(C)C)c2c3c(sc2n1)CN(C)CC3` was run?
Answer: Its value is 1.56%.

Question: With `Nc1nccnc1C(=O)OCC(=O)NNC(=O)c1ccccc1` as the compound, how does the “hERG current change (%, negative = inhibition) at 10uM” value read?
Answer: Its value is 11.2%.

Question: How did the “hERG current change (%, negative = inhibition) at 10uM” value turn out when `COc1cccc(CNC(=O)CCC2CCCN(C(=O)c3cc4ccccc4o3)C2)c1` (stereo not drawn) was run?
Answer: Its value is -47.7%.

Question: For `CC1CCC(C(=O)NC(C(=O)NCCCN2CCOCC2)C(C)C)CC1` (stereo not drawn), which “hERG current change (%, negative = inhibition) at 10uM” value is on record?
Answer: The value was -17.8%.

Question: With `Cc1ccc(C(=O)CSc2nnc(-c3ccccc3N)n2C)cc1` as the compound, how does the “hERG current change (%, negative = inhibition) at 10uM” value read?
Answer: The value was -8.87%.

Question: For `CN(c1ccc(C(=O)NCCSCc2ccc(Cl)cc2)cc1)S(=O)(=O)c1ccccc1`, which “hERG current change (%, negative = inhibition) at 10uM” value is on record?
Answer: Its value is 1.54%.

Question: How did the “hERG current change (%, negative = inhibition) at 10uM” value turn out when `N#Cc1cccc(S(=O)(=O)N2CCN(c3ccnc4cc(Cl)ccc34)CC2)c1` was run?
Answer: The value was -70.7%.

Question: Which “hERG current change (%, negative = inhibition) at 10uM” value does the source give for `Cc1ccc(S(=O)(=O)C(C#N)c2nc3ccccc3nc2N2CC(C)OC(C)C2)cc1C` (stereo not drawn) here?
Answer: The value was -7.05%.

Question: `Cc1cccc(N2CCN(S(=O)(=O)c3ccc4c(c3)CCC(=O)N4)CC2C)c1` (stereo not drawn) was tested. Which “hERG current change (%, negative = inhibition) at 10uM” value did it give?
Answer: Its value is -8.91%.

Question: With `COc1ccc(C(=O)NCc2nnc(SCC(=O)NCCc3ccccc3)o2)cc1` as the compound, how does the “hERG current change (%, negative = inhibition) at 10uM” value read?
Answer: Its value is 6.94%.

Question: `CC1=C(C(=O)OC(C)C)C(c2ccc3c(c2)OCO3)NC(=O)N1` (stereo not drawn) was tested. Which “hERG current change (%, negative = inhibition) at 10uM” value did it give?
Answer: The value was 10.7%.

Question: For `CN(CCC#N)C(=O)COC(=O)c1ccccc1OCc1ccccc1Cl`, which “hERG current change (%, negative = inhibition) at 10uM” value is on record?
Answer: Its value is 1.72%.

Question: `CCOC(=O)Cc1csc(Nc2c(C)n(C)n(-c3ccccc3)c2=O)n1` was tested. Which “hERG current change (%, negative = inhibition) at 10uM” value did it give?
Answer: Its value is 0.0496%.
